From paper PMC7501302 come the findings set out here.

Protein sequences, listed by entry. Tags and fused reporters are not part of them. Lines headed by an entry give the natural chain unless they say otherwise; changes in a name come on top. Residues count along the entry.
UniProt O95251: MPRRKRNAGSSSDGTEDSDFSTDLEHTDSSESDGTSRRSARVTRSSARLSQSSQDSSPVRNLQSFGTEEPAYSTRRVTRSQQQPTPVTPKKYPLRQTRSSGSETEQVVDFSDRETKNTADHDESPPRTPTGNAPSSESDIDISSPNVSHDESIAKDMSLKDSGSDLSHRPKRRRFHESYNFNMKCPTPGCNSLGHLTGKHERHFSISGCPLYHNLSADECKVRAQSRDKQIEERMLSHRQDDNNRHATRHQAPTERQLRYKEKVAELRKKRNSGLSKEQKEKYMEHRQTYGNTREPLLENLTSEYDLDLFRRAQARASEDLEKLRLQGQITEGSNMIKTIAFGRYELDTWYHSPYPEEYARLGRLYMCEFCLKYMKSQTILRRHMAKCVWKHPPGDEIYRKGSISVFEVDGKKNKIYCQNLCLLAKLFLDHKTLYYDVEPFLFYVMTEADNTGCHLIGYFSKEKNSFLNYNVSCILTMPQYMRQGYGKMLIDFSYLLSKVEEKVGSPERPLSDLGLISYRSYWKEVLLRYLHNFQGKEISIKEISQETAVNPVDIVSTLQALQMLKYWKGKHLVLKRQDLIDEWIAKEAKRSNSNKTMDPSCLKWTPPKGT
GST-KAT7 (1-170aa): residues 1-170 of O95251
GST-KAT7 (171-329aa): residues 171-329 of O95251
GST-KAT7 (330-611aa): residues 330-611 of O95251

Test [1] addresses T1, FLAG-PKD1, expressed in HeLa cells (UniProt Q15139).
T1 sequence: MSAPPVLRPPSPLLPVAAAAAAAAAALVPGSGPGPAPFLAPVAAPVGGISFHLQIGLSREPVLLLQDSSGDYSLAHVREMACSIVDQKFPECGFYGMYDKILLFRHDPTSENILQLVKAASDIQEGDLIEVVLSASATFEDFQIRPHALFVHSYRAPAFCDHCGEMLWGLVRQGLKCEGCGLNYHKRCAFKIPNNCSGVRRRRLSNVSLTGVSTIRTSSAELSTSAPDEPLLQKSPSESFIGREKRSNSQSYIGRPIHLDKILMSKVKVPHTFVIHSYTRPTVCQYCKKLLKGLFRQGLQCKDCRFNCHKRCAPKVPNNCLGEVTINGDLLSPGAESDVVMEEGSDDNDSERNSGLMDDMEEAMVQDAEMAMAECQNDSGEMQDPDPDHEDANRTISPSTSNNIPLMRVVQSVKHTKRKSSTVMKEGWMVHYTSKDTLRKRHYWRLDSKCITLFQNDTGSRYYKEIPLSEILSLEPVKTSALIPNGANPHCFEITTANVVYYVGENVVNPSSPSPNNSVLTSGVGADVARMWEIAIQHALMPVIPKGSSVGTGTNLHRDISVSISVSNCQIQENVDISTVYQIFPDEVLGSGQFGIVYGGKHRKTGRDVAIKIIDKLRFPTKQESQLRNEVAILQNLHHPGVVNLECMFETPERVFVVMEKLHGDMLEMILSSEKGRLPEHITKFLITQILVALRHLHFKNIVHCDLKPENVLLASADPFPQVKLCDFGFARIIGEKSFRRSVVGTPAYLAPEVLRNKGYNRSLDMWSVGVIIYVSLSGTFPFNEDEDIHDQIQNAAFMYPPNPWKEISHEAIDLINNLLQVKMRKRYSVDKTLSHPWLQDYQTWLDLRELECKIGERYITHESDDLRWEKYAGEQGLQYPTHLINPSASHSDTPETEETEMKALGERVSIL
The test is described as follows: co-IP; lysates of HEK293T, HeLa or H1299 cells in IP lysis buffer (25 mM Tris-HCl pH 7.4, 150 mM NaCl, 1% NP-40, 1 mM EDTA, 5% glycerol); anti-Flag, anti-HA, anti-KAT7 or anti-PKD1 antibody overnight at 4 °C, protein G-Sepharose; western blot. For orientation: Immunoblotting shows a protein as a band on a membrane.

Test [2] has as its target T2, endogenous PKD1 (human (endogenous in HEK293T, HeLa, H1299)) (UniProt Q15139).
T2 sequence: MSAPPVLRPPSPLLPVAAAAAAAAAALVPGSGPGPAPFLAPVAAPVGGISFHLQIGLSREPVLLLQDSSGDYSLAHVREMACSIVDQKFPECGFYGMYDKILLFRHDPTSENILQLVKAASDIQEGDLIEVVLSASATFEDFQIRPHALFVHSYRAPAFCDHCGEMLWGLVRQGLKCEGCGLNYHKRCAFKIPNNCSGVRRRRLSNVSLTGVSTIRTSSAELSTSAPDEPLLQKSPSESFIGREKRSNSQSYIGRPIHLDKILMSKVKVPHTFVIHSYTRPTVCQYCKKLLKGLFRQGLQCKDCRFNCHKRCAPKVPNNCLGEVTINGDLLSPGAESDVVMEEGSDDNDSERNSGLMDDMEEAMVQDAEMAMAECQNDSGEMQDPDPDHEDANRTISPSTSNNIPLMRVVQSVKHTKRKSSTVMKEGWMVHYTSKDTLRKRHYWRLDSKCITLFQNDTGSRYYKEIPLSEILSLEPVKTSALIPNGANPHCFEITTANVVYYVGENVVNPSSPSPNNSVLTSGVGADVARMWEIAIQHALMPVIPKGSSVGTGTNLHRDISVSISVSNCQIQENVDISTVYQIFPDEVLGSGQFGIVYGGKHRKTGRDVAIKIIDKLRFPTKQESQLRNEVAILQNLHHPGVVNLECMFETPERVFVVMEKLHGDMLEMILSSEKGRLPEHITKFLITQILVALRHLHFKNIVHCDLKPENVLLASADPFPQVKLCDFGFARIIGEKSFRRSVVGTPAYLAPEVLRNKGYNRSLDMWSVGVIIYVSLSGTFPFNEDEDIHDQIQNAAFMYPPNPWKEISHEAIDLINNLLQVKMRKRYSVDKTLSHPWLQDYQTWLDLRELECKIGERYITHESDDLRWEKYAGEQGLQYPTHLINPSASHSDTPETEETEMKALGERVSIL
Described as above.

For test [3], the target named is T3, HA-PKD1, expressed in HEK293T cells (UniProt Q15139).
T3 sequence: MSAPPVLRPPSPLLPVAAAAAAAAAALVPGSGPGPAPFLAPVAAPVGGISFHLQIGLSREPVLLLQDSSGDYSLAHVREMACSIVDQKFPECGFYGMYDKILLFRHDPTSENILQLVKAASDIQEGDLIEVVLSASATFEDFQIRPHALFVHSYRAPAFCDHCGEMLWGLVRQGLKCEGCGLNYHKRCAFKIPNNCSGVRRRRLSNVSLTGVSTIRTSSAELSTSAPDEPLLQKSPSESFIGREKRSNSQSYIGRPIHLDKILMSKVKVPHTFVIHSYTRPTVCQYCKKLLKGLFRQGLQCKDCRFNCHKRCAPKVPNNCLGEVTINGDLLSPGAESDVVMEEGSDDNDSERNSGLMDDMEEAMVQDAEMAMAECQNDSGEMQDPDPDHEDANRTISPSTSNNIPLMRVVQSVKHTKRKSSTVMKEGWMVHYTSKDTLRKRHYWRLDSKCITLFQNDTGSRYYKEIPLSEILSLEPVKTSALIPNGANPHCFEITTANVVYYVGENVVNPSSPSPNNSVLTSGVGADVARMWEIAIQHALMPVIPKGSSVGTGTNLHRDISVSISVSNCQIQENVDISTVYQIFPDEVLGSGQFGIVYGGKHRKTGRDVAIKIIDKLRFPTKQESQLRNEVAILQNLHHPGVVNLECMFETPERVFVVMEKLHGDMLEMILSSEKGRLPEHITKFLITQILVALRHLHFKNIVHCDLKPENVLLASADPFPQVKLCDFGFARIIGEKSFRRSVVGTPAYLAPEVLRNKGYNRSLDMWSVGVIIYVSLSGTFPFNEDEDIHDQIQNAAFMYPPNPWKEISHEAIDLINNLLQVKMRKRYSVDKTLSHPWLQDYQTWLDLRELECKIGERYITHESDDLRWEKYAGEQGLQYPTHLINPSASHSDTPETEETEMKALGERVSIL
The description is as above.

In test [4] the target is GST-KAT7 (1-170aa) (UniProt O95251). The test is described as follows: pull-down; GST pull-down: GST-KAT7 or its deletion mutants incubated with HEK293T-expressed HA-PKD1; glutathione-sepharose beads.
Test [5] deals with GST-KAT7 (171-329aa) (UniProt O95251). The test is described as above.
For test [6], the target named is GST-KAT7 (330-611aa) (UniProt O95251). The test is described as above.
Test [7] deals with GST-KAT7 (full-length) (UniProt O95251). The test is described as above.
Test [8] deals with FLAG-KAT7, expressed in HEK293T cells (UniProt O95251). Nature of the test: co-IP; lysates of HEK293T, HeLa or H1299 cells in IP lysis buffer (25 mM Tris-HCl pH 7.4, 150 mM NaCl, 1% NP-40, 1 mM EDTA, 5% glycerol); anti-Flag, anti-HA, anti-KAT7 or anti-PKD1 antibody overnight at 4 °C, protein G-Sepharose; western blot.
Test [9] concerns the target endogenous KAT7 (human (endogenous in HEK293T, HeLa, H1299)) (UniProt O95251). The description is as above.

These are yes or no findings as the source states them, for the method shown. Binding seen in cells or lysates may run through a third protein. Some binding calls cover weakened binding; strength is not graded here. For some of these results: Where a sequence is shown, tags or fusion partners need not be part of it.

For “endogenous KAT7 (from UniProt O95251 1-611)”, the binding result in test [1] and in [2] was “binds” throughout.
Consider “FLAG-KAT7, expressed in HEK293T cells (from UniProt O95251 1-611) (enzyme)”, for which the binding entry in [3] is recorded as “binds”.

B1: HA-PKD1, expressed in HEK293T cells (enzyme, UniProt Q15139 1-912)
chain: MSAPPVLRPPSPLLPVAAAAAAAAAALVPGSGPGPAPFLAPVAAPVGGISFHLQIGLSREPVLLLQDSSGDYSLAHVREMACSIVDQKFPECGFYGMYDKILLFRHDPTSENILQLVKAASDIQEGDLIEVVLSASATFEDFQIRPHALFVHSYRAPAFCDHCGEMLWGLVRQGLKCEGCGLNYHKRCAFKIPNNCSGVRRRRLSNVSLTGVSTIRTSSAELSTSAPDEPLLQKSPSESFIGREKRSNSQSYIGRPIHLDKILMSKVKVPHTFVIHSYTRPTVCQYCKKLLKGLFRQGLQCKDCRFNCHKRCAPKVPNNCLGEVTINGDLLSPGAESDVVMEEGSDDNDSERNSGLMDDMEEAMVQDAEMAMAECQNDSGEMQDPDPDHEDANRTISPSTSNNIPLMRVVQSVKHTKRKSSTVMKEGWMVHYTSKDTLRKRHYWRLDSKCITLFQNDTGSRYYKEIPLSEILSLEPVKTSALIPNGANPHCFEITTANVVYYVGENVVNPSSPSPNNSVLTSGVGADVARMWEIAIQHALMPVIPKGSSVGTGTNLHRDISVSISVSNCQIQENVDISTVYQIFPDEVLGSGQFGIVYGGKHRKTGRDVAIKIIDKLRFPTKQESQLRNEVAILQNLHHPGVVNLECMFETPERVFVVMEKLHGDMLEMILSSEKGRLPEHITKFLITQILVALRHLHFKNIVHCDLKPENVLLASADPFPQVKLCDFGFARIIGEKSFRRSVVGTPAYLAPEVLRNKGYNRSLDMWSVGVIIYVSLSGTFPFNEDEDIHDQIQNAAFMYPPNPWKEISHEAIDLINNLLQVKMRKRYSVDKTLSHPWLQDYQTWLDLRELECKIGERYITHESDDLRWEKYAGEQGLQYPTHLINPSASHSDTPETEETEMKALGERVSIL
As to B1, the binding result was “no binding” in [4]; “binds” in test [5]; “binds weakly” in test [6]; “binds” in test [7]; “binds” in [8].

B2: endogenous PKD1 (enzyme, UniProt Q15139 1-912)
chain: MSAPPVLRPPSPLLPVAAAAAAAAAALVPGSGPGPAPFLAPVAAPVGGISFHLQIGLSREPVLLLQDSSGDYSLAHVREMACSIVDQKFPECGFYGMYDKILLFRHDPTSENILQLVKAASDIQEGDLIEVVLSASATFEDFQIRPHALFVHSYRAPAFCDHCGEMLWGLVRQGLKCEGCGLNYHKRCAFKIPNNCSGVRRRRLSNVSLTGVSTIRTSSAELSTSAPDEPLLQKSPSESFIGREKRSNSQSYIGRPIHLDKILMSKVKVPHTFVIHSYTRPTVCQYCKKLLKGLFRQGLQCKDCRFNCHKRCAPKVPNNCLGEVTINGDLLSPGAESDVVMEEGSDDNDSERNSGLMDDMEEAMVQDAEMAMAECQNDSGEMQDPDPDHEDANRTISPSTSNNIPLMRVVQSVKHTKRKSSTVMKEGWMVHYTSKDTLRKRHYWRLDSKCITLFQNDTGSRYYKEIPLSEILSLEPVKTSALIPNGANPHCFEITTANVVYYVGENVVNPSSPSPNNSVLTSGVGADVARMWEIAIQHALMPVIPKGSSVGTGTNLHRDISVSISVSNCQIQENVDISTVYQIFPDEVLGSGQFGIVYGGKHRKTGRDVAIKIIDKLRFPTKQESQLRNEVAILQNLHHPGVVNLECMFETPERVFVVMEKLHGDMLEMILSSEKGRLPEHITKFLITQILVALRHLHFKNIVHCDLKPENVLLASADPFPQVKLCDFGFARIIGEKSFRRSVVGTPAYLAPEVLRNKGYNRSLDMWSVGVIIYVSLSGTFPFNEDEDIHDQIQNAAFMYPPNPWKEISHEAIDLINNLLQVKMRKRYSVDKTLSHPWLQDYQTWLDLRELECKIGERYITHESDDLRWEKYAGEQGLQYPTHLINPSASHSDTPETEETEMKALGERVSIL
In the case of B2, the binding result in [8] and in test [9] was “binds” throughout.
